{"source": "PubChem BioAssay AID686978", "about": "(National Center for Advancing Translational Sciences (NCATS), 2013)", "note": "Several values for one entry are separate records, joined by “and”; a condition that tells them apart may be missing. Identical values can stand only once. The campaign covered roughly 420,000 compounds. About 64,000 (15%) were called active. Inconclusive means that the source gave no clear call. Such entries were picked first, then a sample of the others. The call rests on the fitted dose curve; in most records, active means well fitted inhibition curve with a large enough effect; inconclusive means small, poorly fitted or top-dose-only effect; inactive means flat fitted curve, though single readings scatter. Where the call is inconclusive, the potency comes from a doubtful curve fit. On the % scale 0 is the no-effect control and ±100 the full control effect; potency means the concentration at half of the fitted maximal effect; tags describe the fitted curve by direction and shape."}
{"assay": "qHTS for Inhibitors of human tyrosyl-DNA phosphodiesterase 1 (TDP1): qHTS in cells in absence of CPT; further: nearly all actives have a fitted effect of over 55% in size", "conditions": "DT40 Tdp1-/- hTDP1 cells, no CPT, ATP luminescence, 48 h; activity change, negative = growth inhibition: at 46.2 µM (top of the series) unless noted", "how_it_was_run": "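Growth kinetics read by CellTiter-Glo luminescence after ≥48 hr at 37 °C. Cells: DT40 Tdp1-/- stably carrying human TDP1, 400 per well, compound exposure in the absence of CPT (DMSO vehicle).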"}
{"smiles": "CCN(CC(=O)Nc1c(F)cccc1F)C(=O)c1ccc(C(=O)c2ccccc2)cc1", "Potency": "inconclusive: 25.9 µM [inhibitor, single point]"}
{"smiles": "COc1ccc(NC(=O)C(c2ccc(C)cc2)N(C)C(=O)/C=C\\c2ccc3c(c2)OCO3)cc1", "note": "(centres undefined)", "Potency": "inconclusive: 29.1 µM [inhibitor, single point]"}
{"smiles": "O=C1CCCC2=C1C(c1ccc(Cl)cc1)N1C(=O)CCSC1=N2", "note": "(centres undefined)", "activity change, negative = growth inhibition": "inconclusive: -33% [inhibitor]"}
{"smiles": "CCc1cc2c(COC(=O)c3cccc(NS(C)(=O)=O)c3)cc(=O)oc2cc1O", "Potency": "active: 10.3 µM"}
{"smiles": "COCCn1c(=O)c(-c2ccccc2)nc2cnc(Oc3ccccc3)nc21", "activity change, negative = growth inhibition": "inactive: -28.1%"}
{"smiles": "OC(CCN1CCCCC1)(c1ccccc1)C1CC2C=CC1C2", "note": "(centres undefined)", "Potency": "inconclusive: 18.8 µM [inhibitor, single point] and inconclusive: 33.5 µM [inhibitor, partial curve, poor fit]"}
{"smiles": "C=C(C)Cn1c(CCNC(=O)CC)nc2ccccc21", "activity change, negative = growth inhibition": "inactive: -29.7%"}
{"smiles": "COc1cc(CNc2ccc3[nH]c(=O)[nH]c3c2)ccc1OCc1ccccc1Cl", "Potency": "inconclusive: 29.1 µM [inhibitor, single point]"}
{"smiles": "CCC(=O)NN1CCc2cc3ccc(C)cc3nc21", "activity change, negative = growth inhibition": "inactive: 7.22%"}
{"smiles": "COc1ccc(C(=O)O)cc1S(=O)(=O)Nc1ccccc1-c1ccccc1", "activity change, negative = growth inhibition": "inactive: 0.241%"}
{"smiles": "CCOC(=O)c1ccc(NC(=O)CCc2c(C)nc3c(c(C)nn3-c3ccccc3)c2C)cc1", "Potency": "active: 10.3 µM"}
{"smiles": "COC(=O)C(CC(C)C)NC(=O)C(Cc1ccccc1)NC(=O)C1CCCN1C(=O)OC(C)(C)C", "note": "(centres undefined)", "activity change, negative = growth inhibition": "inactive: 8.13%"}
{"smiles": "CC[C@]12c3[nH]c4ccc(Cl)cc4c3CCN1C(=O)[C@@H](CC(=O)NCc1ccco1)C[C@@H]2C(=O)N1CCN(C(=O)C2CC2)CC1", "Potency": "inconclusive: 25.9 µM [inhibitor, single point]"}
{"smiles": "COC(=O)c1ccc(N=c2sc(C(=O)OC)cc(=O)n2C)cc1", "Potency": "active: 25.9 µM"}
{"smiles": "COc1ccc(CCNc2cc(C)nc3c(-c4ccc(Cl)cc4)cnn23)cc1OC", "Potency": "active: 16.4 µM"}
{"smiles": "COc1ccc(CN(C)C(=O)COC(=O)c2c(C)nn(-c3ccc(F)cc3)c2Cl)cc1", "Potency": "inconclusive: 29.1 µM [inhibitor, single point]"}
{"smiles": "Cc1ccc(CN(Cc2ccco2)C(=O)COc2ccccc2C)cc1", "Potency": "active: 16.4 µM"}
{"smiles": "Cc1noc(C)c1C(=O)OC(C)C(=O)NC(C)c1ccc(Cl)cc1Cl", "note": "(centres undefined)", "Potency": "inconclusive: 23.1 µM [inhibitor, single point]"}
{"smiles": "O=Cc1cc(OCc2ccccc2)ccc1[B-](F)(F)F", "Potency": "active: 2.06 µM"}
{"smiles": "O=C1C=C(Nc2ccccc2O)c2ccccc2C1=O", "Potency": "active: 3.26 µM"}
{"smiles": "COC(=O)Nc1nc2c(C)cccc2s1", "activity change, negative = growth inhibition": "inactive: -10%"}
{"smiles": "COc1cccc(CN2CCC(C(=O)Nc3ccc(Oc4cccnc4)cc3)CC2)c1", "Potency": "inconclusive: 18.4 µM [inhibitor, single point]"}
{"smiles": "COc1ccccc1NC(c1ccc(Cl)cc1)c1nnc(-c2cccc(F)c2)o1", "note": "(centres undefined)", "Potency": "inconclusive: 25.9 µM [inhibitor, single point]"}
{"smiles": "O=C(c1ccccc1)N1CCN(C2C3CC4CC(C3)CC2C4)CC1", "note": "(centres undefined)", "Potency": "inconclusive: 14.6 µM [inhibitor, single point]"}
{"smiles": "CC(=O)Nc1ccc(S(=O)(=O)N2CCC(C(N)=O)(N3CCCCC3)CC2)cc1", "activity change, negative = growth inhibition": "inactive: -1.98%"}
{"smiles": "OC(CN1CCN(c2ccccn2)CC1)Cn1c2ccc(Cl)cc2c2cc(Cl)ccc21", "note": "(centres undefined)", "Potency": "inconclusive: 16.4 µM [inhibitor, single point]"}
{"smiles": "CC(=O)c1ccc(NC(=O)CCc2c(C)nc3c(c(C)nn3-c3ccc(C)cc3)c2C)cc1", "Potency": "active: 7.31 µM"}
{"smiles": "CC1CCN(c2ccc3nnc(CCC(=O)N4CCN(c5ccccc5F)CC4)n3n2)CC1", "Potency": "active: 14.6 µM"}
{"smiles": "O=C(Cn1c(SCc2cccc(F)c2)nc2cccnc21)Nc1ccc(F)c(Cl)c1", "Potency": "active: 14.6 µM"}
{"smiles": "O=c1sc(N2CCN(c3ccccc3F)CC2)nc2ccsc12", "Potency": "inconclusive: 18.4 µM [inhibitor, single point]"}
{"smiles": "O=C(O)C1CCN(c2nc(-c3ccccc3)c3cc(Br)ccc3n2)CC1", "Potency": "inconclusive: 16.4 µM [inhibitor, single point]"}
{"smiles": "CC(C)c1ccc(OCC(=O)Nc2ccccc2C(=O)N2CCOCC2)cc1", "Potency": "inconclusive: 29.1 µM [inhibitor, single point]"}
{"smiles": "COc1cc(/C=N/N=C(\\N)c2nonc2N)cc(OC)c1O", "Potency": "inconclusive: 20.6 µM [inhibitor, single point]"}
{"smiles": "Cc1cc(N=Cc2c(O)ccc3cc(Br)ccc23)no1", "activity change, negative = growth inhibition": "inactive: -8.24%"}
{"smiles": "O=C(NCCOc1ccc(Cl)cc1)c1ccco1", "activity change, negative = growth inhibition": "inactive: -17.3%"}
{"smiles": "Cc1ccc(C)c(Cn2nnc3c(=O)[nH]c(C4CCCN(C(=O)c5ccco5)C4)nc32)c1", "note": "(centres undefined)", "Potency": "inconclusive: 13 µM [inhibitor, partial curve]"}
{"smiles": "O=C(CSc1nnc(-c2cccnc2)o1)c1cc2ccccc2oc1=O", "Potency": "inconclusive: 29.1 µM [inhibitor, single point]"}
{"smiles": "CCOc1ccc(S(=O)(=O)Nc2cccc(C(=O)NCC3(N4CCCCC4)CCCCC3)c2)cc1", "Potency": "inconclusive: 23.1 µM [inhibitor, single point]"}
{"smiles": "COc1ccccc1C(=O)Nc1cccc(C(=O)c2ccccc2)c1", "Potency": "inconclusive: 18.4 µM [inhibitor, single point]"}
{"smiles": "COc1ccc(CCn2c3c(c(=O)[nH]c2=S)CN(Cc2ccccc2)CN3)cc1OC", "activity change, negative = growth inhibition": "inactive: -21%"}
{"smiles": "Cc1ccc(OCc2cc(C(=O)NCc3ccc(OC(F)(F)F)cc3)no2)cn1", "Potency": "inconclusive: 29.1 µM [inhibitor, single point]"}
{"smiles": "COc1cc(CN2CCC3(CCC(CNC(=O)c4cc(C)nn4C)O3)CC2)ccc1F", "note": "(centres undefined)", "Potency": "inconclusive: 14.6 µM [inhibitor, partial curve, poor fit]"}
{"smiles": "COC(=O)CN1C(=S)N(c2ccc(Cl)cc2)C(=O)C1CC(=O)Nc1ccc(Cl)cc1", "note": "(centres undefined)", "Potency": "inconclusive: 16.4 µM [inhibitor, single point]"}
{"smiles": "CN(C)S(=O)(=O)c1cccc(NC(=O)C2CCN(S(=O)(=O)c3cccs3)CC2)c1", "Potency": "inconclusive: 25.9 µM [inhibitor, single point]"}
